From patent publication US9439918B2 (priority 2008, dated 2016)

Assays:
[1] = test system: S. epidermidis (095-2777A); test: Time kill curve; type: cell-based; details: tested at 2×, 4×, 8×MIC
S. aureus (ATCC 25923) [2] = type: cell-based
S. aureus (ATCC 29213) = test: Time kill curve; type: cell-based; details: tested at 2×, 4×, 8×MIC
S. pneumoniae (075-241B) = test: Time kill curve; type: cell-based; details: tested at 2×, 4×, 8×MIC
E. faecalis (ATCC 29212) = test: Time kill curve; type: cell-based; details: tested at 2×, 4×, 8×MIC
S. aureus (ATCC 25923) [3] = type: cell-based; details: broth
S. pyogenes (088-11708A) = test: Time kill curve; type: cell-based; details: tested at 2×, 4×, 8×MIC
[4] = test system: phagocytized S. aureus ATCC 25923; type: cell-based, Staphylococcus aureus
THP-1 macrophages = test: Cellular accumulation, microbiological assay; type: in vitro ADME, human
S. mitis (112-1885A) = test: Time kill curve; type: cell-based; details: tested at 2×, 4×, 8×MIC
S. aureus 25923 Ery-S = type: cell-based; details: broth microdilution
S. pneumoniae (10) = test: MBC/MIC ratio; details: 10 tested
S. aureus (10) = test: MBC/MIC ratio; details: 10 tested
Enterococcus spp. (5) = test: MBC/MIC ratio; details: 5 tested
[5] = test system: β-haemolytic streptococci (5); test: MBC/MIC ratio; details: 5 tested
[6] = test system: Coagulase-neg. staphylococci (5); test: MBC/MIC ratio; details: 5 tested
[7] = test system: Viridans group streptococci (5); test: MBC/MIC ratio; details: 5 tested

CC[C@H]1OC(=O)[C@@](C)(F)C(=O)[C@H](C)[C@@H](OC2OC(C)CC(N(C)C)C2O)[C@@](C)(OC)C[C@@H](C)C(=O)[C@H](C)[C@H]2N(CCCCn3cc(-c4cccc(N)c4)nn3)C(=O)O[C@]12C (stereo partly drawn) [CEM-101, 11-N-4-(3-aminophenyl)-[1,2,3]triazol-1-yl]-butyl-5-desosaminyl-3-oxo-2-fluoro-erythronolide A,-11,12-cyclic carbamate]
Antimicrobial activity (time kill curve) [1]: rapid bactericidal activity | time-kill effect on CFU (S. aureus (ATCC 25923) [2]; 0.7 mg/liter, THP-1 macrophages): significantly decrease CFU | reduction of CFU (S. aureus (ATCC 25923) [2]; 4 mg/liter, THP-1 macrophages): approximately 1.5 log 10 CFU | time within which the maximal decrease of CFU was obtained (S. aureus (ATCC 25923) [2]; all situations (broth and THP-1, 0.7 and 4 mg/liter)): ≤ 1 h | Antimicrobial activity (time kill curve) (S. aureus (ATCC 29213)): rapid bactericidal activity | Antimicrobial activity (time kill curve) (S. pneumoniae (075-241B)): Static | Antimicrobial activity (time kill curve) (E. faecalis (ATCC 29212)): Static | time-kill effect on CFU (S. aureus (ATCC 25923) [3]; 0.7 mg/liter): significantly decrease CFU | time to achieve the antibacterial effect (S. aureus (ATCC 25923) [3]; 4 mg/liter): 1 h | Antimicrobial activity (time kill curve) (S. pyogenes (088-11708A)): rapid bactericidal activity | Emax, Δ log10 CFU at 24 h compared to the post-phagocytosis inoculum [4]: −0.86 Δ log10 CFU | Intracellular activity (24 h), Emax [4]: −0.8 ± 0.2 Δ log cfu from time 0 h | Intracellular activity (24 h), Static dose [4]: ~0.02 mg/L | Intracellular activity, Static dose [4]: ~0.02 mg/L and ~0.03 mg/L | Static dose [4]: ~0.02 mg/L | reduction of the intracellular inoculum (Emax) [4]: ~1 log | efflux: time for release of half of the cell-associated drug (THP-1 macrophages; cells incubated with 10 mg/L for 1 h, then drug-free medium): approximately 10 min | effect of gemfibrozil on cellular accumulation (THP-1 macrophages; gemfibrozil, MRP inhibitor): did not affect | effect of monensin on cellular accumulation (THP-1 macrophages; monensin, proton ionophore): almost completely suppressed | effect of acidic pH on cellular accumulation (THP-1 macrophages; pH brought from 7 to 6): reduced | effect of verapamil on cellular accumulation (THP-1 macrophages; verapamil, Pgp inhibitor): without affecting | accumulation level (THP-1 macrophages; within 24 h, extracellular concentration 10 mg/liter): about 375 fold | Antimicrobial activity (time kill curve) (S. mitis (112-1885A)): rapid bactericidal activity

CC[C@H]1OC(=O)[C@H](C)[C@@H](OC2CC(C)(OC)C(O)C(C)O2)[C@H](C)[C@@H](OC2OC(C)CC(N(C)C)C2O)[C@@](C)(OC)C[C@@H](C)C(=O)[C@H](C)[C@H]2N(CCCCn3cc(-c4cccc(N)c4)nn3)C(=O)O[C@]12C (stereo partly drawn) [Entry 20c]
MIC, S. aureus 25923 Ery-S (S. aureus 25923 Ery-S): 1 mg/L (≈ 1.01 µM)

CC[C@H]1OC(=O)[C@H](C)C(=O)[C@H](C)[C@@H](O[C@@H]2O[C@H](C)C[C@H](N(C)C)[C@H]2O)[C@](C)(OC)C[C@@H](C)C(=O)[C@H](C)[C@H]2N(CCCCn3cnc(-c4cccnc4)c3)C(=O)O[C@]12C [TEL, telithromycin]
No. of strains with MBC/MIC value of 1 (S. pneumoniae (10)): 2 | No. of strains with MBC/MIC value of 2 (S. pneumoniae (10)): 6^a | No. of strains with MBC/MIC value of 4 (S. pneumoniae (10)): 0 | No. of strains with MBC/MIC value of 8 (S. pneumoniae (10)): 0 | No. of strains with MBC/MIC value of 16 (S. pneumoniae (10)): 0 | No. of strains with MBC/MIC value of ≧32 (S. pneumoniae (10)): 2 | No. of strains with MBC/MIC value of 1 (S. aureus (10)): 0 | No. of strains with MBC/MIC value of 2 (S. aureus (10)): 0 | No. of strains with MBC/MIC value of 4 (S. aureus (10)): 0 | No. of strains with MBC/MIC value of 8 (S. aureus (10)): 0 | No. of strains with MBC/MIC value of 16 (S. aureus (10)): 0 | No. of strains with MBC/MIC value of ≧32 (S. aureus (10)): 10 | No. of strains with MBC/MIC value of 1 (Enterococcus spp. (5)): 0 | No. of strains with MBC/MIC value of 2 (Enterococcus spp. (5)): 0 | No. of strains with MBC/MIC value of 4 (Enterococcus spp. (5)): 0 | No. of strains with MBC/MIC value of 8 (Enterococcus spp. (5)): 0 | No. of strains with MBC/MIC value of 16 (Enterococcus spp. (5)): 0 | No. of strains with MBC/MIC value of ≧32 (Enterococcus spp. (5)): 5

CC[C@H]1OC(=O)[C@H](C)[C@@H](OC2CC(C)(OC)C(O)C(C)O2)[C@H](C)[C@@H](OC2OC(C)CC(N(C)C)C2O)[C@@](C)(OC)C[C@@H](C)C(=O)[C@H](C)[C@H]2N(CCCCn3cc(-c4cccnc4)nn3)C(=O)O[C@]12C (stereo partly drawn) [Entry 20b]
MIC, S. aureus 25923 Ery-S (S. aureus 25923 Ery-S): 0.25 mg/L (≈ 0.257 µM)

CC[C@H]1OC(=O)[C@H](C)[C@@H](O[C@H]2C[C@@](C)(OC)[C@@H](O)[C@H](C)O2)[C@H](C)[C@@H](O[C@@H]2O[C@H](C)C[C@H](N(C)C)[C@H]2O)[C@](C)(OC)C[C@@H](C)C(=O)[C@H](C)[C@@H](O)[C@]1(C)O [CLR, clarithromycin]
No. of strains with MBC/MIC value of 1 (S. pneumoniae (10)): 2 | No. of strains with MBC/MIC value of 2 (S. pneumoniae (10)): 3 | No. of strains with MBC/MIC value of 4 (S. pneumoniae (10)): 1 | No. of strains with MBC/MIC value of 8 (S. pneumoniae (10)): 0 | No. of strains with MBC/MIC value of 16 (S. pneumoniae (10)): 0 | No. of strains with MBC/MIC value of ≧32 [5]: 2^b | No. of strains with MBC/MIC value of ≧32 [6]: 4^b | No. of strains with MBC/MIC value of ≧32 [7]: 3^b | No. of strains with MBC/MIC value of 1 (S. aureus (10)): 0 | No. of strains with MBC/MIC value of 2 (S. aureus (10)): 0 | No. of strains with MBC/MIC value of 4 (S. aureus (10)): 0 | No. of strains with MBC/MIC value of 8 (S. aureus (10)): 0 | No. of strains with MBC/MIC value of 16 (S. aureus (10)): 0 | No. of strains with MBC/MIC value of ≧32 (S. aureus (10)): 6^b | No. of strains with MBC/MIC value of 1 (Enterococcus spp. (5)): 0 | No. of strains with MBC/MIC value of 2 (Enterococcus spp. (5)): 0 | No. of strains with MBC/MIC value of 4 (Enterococcus spp. (5)): 0 | No. of strains with MBC/MIC value of 8 (Enterococcus spp. (5)): 0 | No. of strains with MBC/MIC value of 16 (Enterococcus spp. (5)): 0 | No. of strains with MBC/MIC value of ≧32 (Enterococcus spp. (5)): 2^b

CC[C@H]1OC(=O)[C@H](C)[C@@H](OC2CC(C)(OC)C(O)C(C)O2)[C@H](C)[C@@H](OC2OC(C)CC(N(C)C)C2O)[C@@](C)(OC)C[C@@H](C)C(=O)[C@H](C)[C@H]2N(CCCCn3cc(-c4ccccn4)nn3)C(=O)O[C@]12C (stereo partly drawn) [Entry 20a]
MIC, S. aureus 25923 Ery-S (S. aureus 25923 Ery-S): 0.25 mg/L (≈ 0.257 µM)

CC[C@H]1OC(=O)[C@H](C)[C@@H](OC2CC(C)(OC)C(O)C(C)O2)[C@H](C)[C@@H](OC2OC(C)CC(N(C)C)C2O)[C@@](C)(OC)C[C@@H](C)C(=O)[C@H](C)[C@H]2N(CCCCn3cc(COc4c(Cl)cccc4Cl)nn3)C(=O)O[C@]12C (stereo partly drawn) [Entry 20d]
MIC, S. aureus 25923 Ery-S (S. aureus 25923 Ery-S): 1 mg/L (≈ 0.934 µM)

CC[C@H]1OC(=O)[C@H](C)[C@@H](OC2CC(C)(OC)C(O)C(C)O2)[C@H](C)[C@@H](OC2OC(C)CC(N(C)C)C2O)[C@@](C)(OC)C[C@@H](C)C(=O)[C@H](C)[C@H]2N(CCCCn3cc(Cn4nnc5ccccc54)nn3)C(=O)O[C@]12C (stereo partly drawn) [Entry 20e]
MIC, S. aureus 25923 Ery-S (S. aureus 25923 Ery-S): ≦0.25 μg/mL

Converted amounts (≈) assume the structure as drawn. “And” between values parts separate entries of the source, which are not always exact repeats. Identical values can stand only once. Like-named read-outs stand apart in the source and are kept apart here. Marks after values point to notes of the source that are not given here.
